For 33 molecules, Ki results are on record in patent US8067379B2, “Sulfur compounds as inhibitors of hepatitis C virus NS3 serine protease” (Schering Corporation, priority 2004, dated 2011).

In general, Ki refers to the equilibrium dissociation constant of an inhibitor or competing ligand from its target.

One test concerns the target Recombinant heterodimeric HCV NS3/NS4A protease (strain 1a) (Hepatitis C virus genotype 1a, UniProt P27958). Briefly: Spectrophotometric assay for HCV serine protease inhibitory activity (chromogenic ester substrates). The following applies: Table 3, sulfide compounds; HCV serine protease; read-out: Ki* range. The test is classed as biochemical. The source says:
Assay for HCV Protease Inhibitory Activity:
Spectrophotometric Assay: Spectrophotometric assay for the HCV serine protease can be performed on the inventive compounds by following the procedure described by R. Zhang et al, Analytical Biochemistry, 270 (1999) 268-275, the disclosure of which is incorporated herein by reference. The assay based on the proteolysis of chromogenic ester substrates is suitable for the continuous monitoring of HCV NS3 protease activity. The substrates are derived from the P side of the NS5A-NS5B junction sequence (Ac-DTEDWX(Nva), where X=A or P) whose C-terminal carboxyl groups are esterified with one of four different chromophoric alcohols (3- or 4-nitrophenol, 7-hydroxy-4-methyl-coumarin, or 4-phenylazophenol).
Protein concentrations are determined by the Biorad dye method using recombinant HCV protease standards previously quantified by amino acid analysis. Prior to assay initiation, the enzyme storage buffer (50 mM sodium phosphate pH 8.0, 300 mM NaCl, 10% glycerol, 0.05% lauryl maltoside and 10 mM DTT) is exchanged for the assay buffer (25 mM MOPS pH 6.5, 300 mM NaCl, 10% glycerol, 0.05% lauryl maltoside, 5 μM EDTA and 5 μM DTT) utilizing a Biorad Bio-Spin P-6 prepacked column.
Protease Assay: HCV protease assays are performed at 30° C. using a 200 μl reaction mix in a 96-well microtiter plate. Assay buffer conditions (25 mM MOPS pH 6.5, 300 mM NaCl, 10% glycerol, 0.05% lauryl maltoside, 5 μM EDTA and 5 μM DTT) are optimized for the NS3/NS4A heterodimer (D. L. Sali et al, ibid.)). […] Fifty μls of prewarmed protease (12 nM, 30° C.) in assay buffer, is then used to initiate the reaction (final volume 200 μl). The plates are monitored over the length of the assay (60 minutes) for change in absorbance at the appropriate wavelength (340 nm for 3-Np and HMC, 370 nm for PAP, and 400 nm for 4-Np) using a Spectromax Plus microtiter plate reader equipped with a monochrometer (acceptable results can be obtained with plate readers that utilize cutoff filters). Proteolytic cleavage of the ester linkage between the Nva and the chromophore is monitored at the appropriate wavelength against a no enzyme blank as a control for non-enzymatic hydrolysis. The evaluation of substrate kinetic parameters is performed over a 30-fold substrate concentration range (˜6-200 μM). Initial velocities are determined using linear regression and kinetic constants are obtained by fitting the data to the Michaelis-Menten equation using non-linear regression analysis (Mac Curve Fit 1.1, K. Raner). Turnover numbers (kcat) are calculated assuming the enzyme is fully active.
Evaluation of Inhibitors and Inactivators: The inhibition constants (Ki) for the competitive inhibitors Ac-D-(D-Gla)-L-l-(Cha)-C-OH (27), Ac-DTEDWA(Nva)-OH and Ac-DTEDVVP(Nva)-OH are determined experimentally at fixed concentrations of enzyme and substrate by plotting vo/vi vs. inhibitor concentration ([l]o) according to the rearranged Michaelis-Menten equation for competitive inhibition kinetics: vo/vi=1+[l]o/(Ki (1+[S]o/Km)), where vo is the uninhibited initial velocity, vi is the initial velocity in the presence of inhibitor at any given inhibitor concentration ([l]o) and [S]o is the substrate concentration used.
Turning to `CC(C)(C)[C@H](NC(=O)NC1(CSc2ccccc2)CCCC1)C(=O)N1C[C@H]2[C@@H]([C@H]1C(=O)NC(CC1CC1)C(=O)C(N)=O)C2(C)C` (stereo partly drawn) [Compound 112], the Ki is below 0.075 µM. As to `C=CCNC(=O)C(=O)C(CCC)NC(=O)[C@@H]1[C@@H]2[C@H](CN1C(=O)[C@@H](NC(=O)NC1(CSCc3ccco3)CCCCC1)C(C)(C)C)C2(C)C` (stereo partly drawn) [Compound 125], the Ki fell in the range of 0.075 to 0.25 µM. The same measure, in the same setting: then `CC(C)(C)[C@H](NC(=O)NC1(CSCc2ccccc2)CCCCC1)C(=O)N1C[C@H]2[C@@H]([C@H]1C(=O)NC(CC1CC1)C(=O)C(N)=O)C2(C)C` (stereo partly drawn) [Compound 115], with below 0.075 µM.

The same test, now with this note: Table 3, sulfone compounds; HCV serine protease; read-out: Ki* range.
Regarding `CC(C)CC(C)(CS(=O)(=O)C(C)(C)C)NC(=O)N[C@H](C(=O)N1C[C@H]2[C@@H]([C@H]1C(=O)NC(CC1CC1)C(=O)C(N)=O)C2(C)C)C(C)(C)C` (stereo partly drawn) [Compound 194], the Ki was below 0.075 µM. With `C=CCNC(=O)C(=O)C(CC1CC1)NC(=O)[C@@H]1[C@@H]2[C@H](CN1C(=O)[C@@H](NC(=O)NC1(CS(=O)(=O)CCC(C)C)CCCCC1)C1Cc3ccccc3C1)C2(C)C` (stereo partly drawn) [Compound 294], the Ki is below 0.075 µM. `C=CCNC(=O)C(=O)C(CCC)NC(=O)[C@@H]1[C@@H]2[C@H](CN1C(=O)[C@@H](NC(=O)NC1(CS(C)(=O)=O)CCCCC1)C(C)(C)C)C2(C)C` (stereo partly drawn) [Compound 211]: the Ki is below 0.075 µM. Turning to `C#CCCC(NC(=O)[C@@H]1[C@@H]2[C@H](CN1C(=O)[C@@H](NC(=O)NC1(CS(=O)(=O)C(C)(C)C)CCCCC1)C(C)(C)C)C2(C)C)C(=O)C(=O)NCCSC` (stereo partly drawn) [Compound 260], the Ki is below 0.075 µM.

As to `CC(C)[C@@H](CS(=O)(=O)Cc1ccccc1)NC(=O)N[C@H](C(=O)N1C[C@H]2[C@@H]([C@H]1C(=O)NC(CC1CC1)C(=O)C(N)=O)C2(C)C)C(C)(C)C` (stereo partly drawn) [Compound 146], the Ki is below 0.075 µM.

Turning to `CC(C)(C)[C@H](NC(=O)NC1(CS(=O)(=O)c2ccccc2)CC1)C(=O)N1C[C@H]2[C@@H]([C@H]1C(=O)NC(CC1CC1)C(=O)C(N)=O)C2(C)C` (stereo partly drawn) [Compound 162], the Ki was below 0.075 µM. As for `CCCCNC(=O)C(=O)C(CCCC)NC(=O)[C@@H]1[C@@H]2[C@H](CN1C(=O)[C@@H](NC(=O)NC1(CS(=O)(=O)C(C)(C)C)CCCCC1)C(C)(C)C)C2(C)C` (stereo partly drawn) [Compound 251], the inhibition constant (Ki) is below 0.075 µM.

Still in this test, the particulars now being: Table 3A; class symbols; read-out: Ki* Range.
On to `CCCC[C@H](NC(=O)[C@@H]1[C@@H]2[C@H](CN1C(=O)[C@@H](NC(=O)NC1([C@@H]3CCCS3(=O)=O)CCCCC1)C1(C)CCCCC1)C2(C)C)C(=O)C(=O)NCC` [Compound 883-do], for which the inhibition constant Ki is below 0.075 µM. With `C=CCNC(=O)C(=O)[C@H](CC1CC1)NC(=O)[C@@H]1[C@@H]2[C@H](CN1C(=O)[C@@H](NC(=O)NC1(C3CCCCS3(=O)=O)CCCCC1)C(C)(C)C)C2(C)C` (stereo partly drawn) [Compound 729], the Ki is below 0.075 µM. Consider `CCCC(NC(=O)[C@@H]1[C@@H]2[C@H](CN1C(=O)[C@@H](NC(=O)NC1(CS(=O)(=O)C(C)(C)CC)CCCCC1)C1(C)CCCCC1)[C@@]2(C)COCc1ccccc1)C(=O)C(=O)NC1CC1` (stereo partly drawn) [Compound 536], for which the Ki is below 0.075 µM. `CC(C)(C)[C@H](NC(=O)NC1(CS(=O)(=O)C(C)(C)C)CCCCC1)C(=O)N1C[C@H]2[C@@H]([C@H]1C(=O)NC(CC1CC1)C(=O)C(=O)NCc1cccnc1)C2(C)C` (stereo partly drawn) [Compound 737]: the inhibition constant Ki is below 0.075 µM.

With `CCCC[C@H](NC(=O)[C@@H]1[C@@H]2[C@H](CN1C(=O)[C@@H](NC(=O)NC1(CS(=O)(=O)C3(C)CCOCC3)CCCCC1)C(C)(C)C)C2(Cl)Cl)C(=O)C(=O)NCC` [Compound 883-dy], the Ki is below 0.075 µM.

Turning to `CCC[C@H](NC(=O)[C@@H]1[C@@H]2[C@H](CN1C(=O)[C@@H](NC(=O)NC1([C@H]3CCCS3(=O)=O)CCCCC1)C(C)(C)C)C2(Cl)Cl)C(=O)C(=O)NC1CC1` [Compound 815], the Ki was below 0.075 µM. Consider `C=CCNC(=O)C(=O)C(CC(F)F)NC(=O)[C@@H]1[C@@H]2[C@H](CN1C(=O)[C@@H](NC(=O)NC1(CS(=O)(=O)C(C)(C)CCC)CCCCC1)C1(C)CCCCC1)C2(C)C` (stereo partly drawn) [Compound 441], for which the Ki was below 0.075 µM.

In the case of `C=CCNC(=O)C(=O)[C@H](CCC1CC1)NC(=O)[C@@H]1[C@@H]2[C@H](CN1C(=O)[C@@H](NC(=O)NC1(CS(=O)(=O)C3CCCC3)CCCCC1)C(C)(C)C)C2(C)C` [Compound 703], the Ki is below 0.075 µM. On to `C=CCNC(=O)C(=O)[C@H](CCCC)NC(=O)[C@@H]1[C@@H]2[C@H](CN1C(=O)[C@@H](NC(=O)NC1(CS(=O)(=O)C(C)(C)CF)CCCCC1)C1(C)CCCCC1)C2(C)C` [Compound 878], for which the Ki was below 0.075 µM.

As to `CCCC(NC(=O)[C@@H]1[C@@H]2[C@H](CN1C(=O)[C@@H](NC(=O)NC1(CS(=O)(=O)C(C)(C)CC)CCCCC1)C1(C)CCCCC1)[C@@]2(C)CO)C(=O)C(=O)NC1CC1` (stereo partly drawn) [Compound 549], the Ki was below 0.075 µM. Same read-out and setting: then `CC1([C@H](NC(=O)NC2(CS(=O)(=O)C(C)(C)C)CCCCC2)C(=O)N2C[C@H]3[C@@H]([C@H]2C(=O)NC(CC2CC2)C(=O)C(=O)NC2CC2)[C@]3(C)COCc2ccccc2)CCCCC1` (stereo partly drawn) [Compound 532], with below 0.075 µM; and `C=CCNC(=O)C(=O)[C@H](CCC)NC(=O)[C@@H]1[C@@H]2[C@H](CN1C(=O)[C@@H](NC(=O)NC1(CS(=O)(=O)C(C)(C)C)CCCCC1)C(C)(C)C)C2(Cl)Cl` [Compound 758], with below 0.075 µM. On to `CCCC(NC(=O)[C@@H]1CC2(CN1C(=O)[C@@H](NC(=O)NC1(CS(=O)(=O)C(C)(C)C)CCCCC1)C1(C)CCCCC1)SCCS2)C(=O)C(=O)NC1CC1` (stereo partly drawn) [Compound 643], for which the Ki is 0.075 to 0.25 µM.

In the case of `CNC(=O)C(=O)[C@H](CC1CC1)NC(=O)[C@@H]1[C@@H]2[C@H](CN1C(=O)[C@@H](NC(=O)NC1(C3CCCS3(=O)=O)CCCCC1)C1(C)CCCCC1)C2(C)C` (stereo partly drawn) [Compound 883-ew], the Ki was below 0.075 µM. Regarding `C=CCNC(=O)C(=O)C(CCC1CC1)NC(=O)[C@@H]1[C@@H]2[C@H](CN1C(=O)[C@@H](NC(=O)NC1(CS(=O)(=O)C(C)(C)C)CCCCC1)C(C)(C)C)C2(Cl)Cl` (stereo partly drawn) [Compound 757], the Ki was below 0.075 µM. As to `CCCC[C@H](NC(=O)[C@@H]1[C@@H]2[C@H](CN1C(=O)[C@@H](NC(=O)NC1([C@H]3CN(C)CCS3(=O)=O)CCCCC1)C(C)(C)C)C2(C)C)C(=O)C(=O)NC1CC1` [Compound 804], the inhibition constant Ki is below 0.075 µM. Same read-out and setting: then `CC1([C@H](NC(=O)NC2(CS(=O)(=O)C(C)(C)C)CCCCC2)C(=O)N2C[C@H]3[C@@H]([C@H]2C(=O)NC(CC2CC2)C(=O)C(=O)NC2CC2)C3(C)C)CCCC1` (stereo partly drawn) [Compound 451], with below 0.075 µM; and `C=CCNC(=O)C(=O)C(CC1CC1)NC(=O)[C@@H]1CC2(CN1C(=O)[C@@H](NC(=O)NC1(C3CCCS3(=O)=O)CCCCC1)C(C)(C)C)SCCCS2` (stereo partly drawn) [Compound 779], with below 0.075 µM.

As for `C=CCNC(=O)C(=O)[C@H](CCC1CC1)NC(=O)[C@@H]1[C@@H]2[C@H](CN1C(=O)[C@@H](NC(=O)NC1(C3CCCCS3(=O)=O)CCCCC1)C(C)(C)C)C2(C)C` (stereo partly drawn) [Compound 870], the Ki was below 0.075 µM. For `CNC(=O)C(=O)C(CCC1CC1)NC(=O)[C@@H]1[C@@H]2[C@H](CN1C(=O)[C@@H](NC(=O)NC1(CS(=O)(=O)C(C)(C)C)CCCCC1)C1(C)CCCCC1)C2(C)C` (stereo partly drawn) [Compound 527], the Ki was below 0.075 µM. Consider `C=CCNC(=O)C(=O)[C@H](CCC1CC1)NC(=O)[C@@H]1[C@@H]2[C@H](CN1C(=O)[C@@H](NC(=O)NC1(CS(=O)(=O)CCC(C)C)CCCCC1)C(C)(C)C)C2(C)C` [Compound 874], for which the Ki was below 0.075 µM. Turning to `C=CCNC(=O)C(=O)[C@H](CC1CC1)NC(=O)[C@@H]1[C@@H]2[C@H](CN1C(=O)[C@@H](NC(=O)NC1([C@@H]3CCS3(=O)=O)CCCCC1)C(C)(C)C)C2(C)C` [Compound 868], the Ki is below 0.075 µM. On the same count and under the same terms, with `CCCC[C@H](NC(=O)[C@@H]1[C@@H]2[C@H](CN1C(=O)[C@@H](NC(=O)NC1(CS(=O)(=O)C3(C)CCOCC3)CCCCC1)C(C)(C)C)C2(C)C)C(=O)C(=O)NC1CC1` [Compound 833] the figure was below 0.075 µM.
